Assay results as given in PubChem BioAssay AID445 (National Center for Advancing Translational Sciences (NCATS), 2006).
Among all 110,000 compounds or so, about 40 (0.04%) were called active. Inconclusive results, whose numbers are uncertain, are shown with a selection of clear calls. The call rests on the fitted dose curve; in most records, active means well fitted curve in the direction sought with a large enough effect in the signal ratio (not every such curve was filed as active); inconclusive means small, poorly fitted or top-dose-only effect, or a change in a side signal; inactive means flat fitted curve, though single readings scatter; the % refers to the signal ratio. Where the call is inconclusive, the potency comes from a doubtful curve fit.

Experiment: IkB Signaling;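 on IkBa stabilization activation: 0% = basal untreated cells and 100% = reference inhibitor full response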
Details: ABC-DLBCL IkBa-CBG/CBR dual luciferase ratio (green luciferase fused to IkBa over red control in OCI-Ly3 lymphoma cells), 4 h; IkBa stabilization activation: at 57.1 µM (top of the series), scaled: untreated 0%, proteasome inhibitor 100% unless noted
Summary of the method: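 In this assay, an IκBα–CBG68 fusion accumulates when IKK-driven degradation is blocked; native CBR normalizes for cell number. OCI-Ly3 cells were treated 4 h with compound and doxycycline, then green and red light read after Chroma-Glo addition.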
Potency means the concentration at half of the fitted maximal effect.

Q: For `CCOc1cccc(C2c3[nH]c4ccccc4c3CCN2C(=O)CSc2ccccc2)c1` (configuration not stated), which IkBa stabilization activation is on record?
A: inconclusive: -3.01% [signal inhibitor]

Q: Which IkBa stabilization activation does the source give for `Cc1cccc(C(=O)N2CCc3cc(CNC(=O)COc4ccc(Cl)cc4)ccc32)c1` here?
A: inconclusive: 2.12% [signal inhibitor]

Q: With `O=C(c1cc(-c2ccc(Cl)cc2)on1)N1CCOCC1` as the compound, how does the Potency read?
A: inconclusive: 15.8 µM [signal inhibitor, partial curve]

Q: For `COC(=O)c1ccc(CSc2nnnn2-c2ccccc2)o1`, which IkBa stabilization activation is on record?
A: inconclusive: 7.2% [signal activator]

Q: For `Cc1ccc(N2C(=O)CSC23C(=O)N(Cc2ccccc2F)c2ccccc23)cc1F` (configuration not stated), which IkBa stabilization activation is on record?
A: inconclusive: 1.92% [signal inhibitor]

Q: With `COc1cc2c(=O)c(C(=O)c3ccc(C)c(C)c3)cn(Cc3ccc(F)cc3)c2cc1OC` as the compound, how does the IkBa stabilization activation read?
A: inconclusive: 1.94% [signal inhibitor]

Q: Which IkBa stabilization activation does the source give for `COc1cc(OC)c(NC(=O)c2cc3c(=O)oc4ccc(C)cc4c3s2)cc1Cl` here?
A: inactive

Q: With `Cc1ccc(-n2ncc3c(NCCO)ncnc32)cc1Cl` as the compound, how does the IkBa stabilization activation read?
A: inconclusive: 2.4% [signal inhibitor]

Q: With `CCn1nc(C(=O)OCC(=O)N2CCc3ccccc32)c2ccccc2c1=O` as the compound, how does the IkBa stabilization activation read?
A: inactive

Q: With `Cc1cc(NC(=O)c2cc(-c3ccc(Cl)cc3)on2)n(-c2ccccc2)n1` as the compound, how does the IkBa stabilization activation read?
A: inconclusive: 5.73% [signal inhibitor]

Q: For `COC(=O)c1cc2oc3ccccc3c2n1CC(=O)Nc1ccc(C)c(F)c1`, which IkBa stabilization activation is on record?
A: inconclusive: 0.597% [signal inhibitor]

Q: Which IkBa stabilization activation does the source give for `Cc1cccc(NC(=O)C2CCN(S(=O)(=O)c3cccc4nsnc34)CC2)n1` here?
A: inactive

Q: Which IkBa stabilization activation does the source give for `O=C(NCCc1ccccc1)C(=O)NCC(c1ccco1)S(=O)(=O)c1cccs1` (configuration not stated) here?
A: inactive

Q: For `Cc1ccc(Cl)cc1NC(=O)COC(=O)CC(C)(C)CC1=NS(=O)(=O)c2ccccc2N1`, which IkBa stabilization activation is on record?
A: inconclusive: 0.385% [signal inhibitor]

Q: Which IkBa stabilization activation does the source give for `Cc1ccccc1NC(=O)c1ccc(F)c(S(=O)(=O)N2CCN(c3ccccc3F)CC2)c1` here?
A: inactive

Q: For `CN(CC(=O)Nc1ccc2c(c1)OCCO2)S(=O)(=O)c1cccc2cccnc12`, which IkBa stabilization activation is on record?
A: inconclusive: 11.6% [signal inhibitor]

Q: For `CCOC(=O)c1ccccc1NC(=O)CN1CCCN(Cc2cc(C)ccc2C)S1(=O)=O`, which IkBa stabilization activation is on record?
A: inconclusive: 1.06% [signal inhibitor]

Q: With `COc1ccc(Oc2ncc3nc(-c4ccc(OC)cc4)c(=O)n(Cc4cccs4)c3n2)cc1` as the compound, how does the IkBa stabilization activation read?
A: inactive: 2.33% [at 11.4 µM, scaled: untreated 0%, proteasome inhibitor 100%]

Q: Which IkBa stabilization activation does the source give for `CCOC(=O)c1[nH]c2ccccc2c1NC(=O)c1ccccc1F` here?
A: inconclusive: 1.44% [signal inhibitor]

Q: For `Cc1ncsc1C(=O)Nc1nc2c(s1)CC(C)CC2` (configuration not stated), which Potency is on record?
A: inconclusive: 3.16 µM [signal inhibitor, full curve]

Q: Which IkBa stabilization activation does the source give for `COc1ccc(C)cc1NC(=O)CSc1nnc(COc2ccc(Cl)cc2)n1Cc1ccco1` here?
A: inconclusive: 2.6% [signal inhibitor]

Q: For `COc1cc(NS(=O)(=O)c2ccc(NC(=O)c3cccc(F)c3)cc2)nc(OC)n1`, which IkBa stabilization activation is on record?
A: inactive

Q: With `Cc1ccccc1NC(=O)c1ccc2[nH]c(C)c(C)c2c1` as the compound, how does the IkBa stabilization activation read?
A: inconclusive: 6.74% [signal inhibitor]

Q: For `Cc1sc2ncnc(N3CCCCC3C)c2c1C` (configuration not stated), which IkBa stabilization activation is on record?
A: inconclusive: 2.14% [signal inhibitor]

Q: Which IkBa stabilization activation does the source give for `COc1ccc(C(=O)NCC(c2cccnc2)N2CCN(c3ccccc3)CC2)cc1` (configuration not stated) here?
A: inconclusive: 6.43% [signal inhibitor]

Q: With `CCCc1nn2c(=O)cc(COC(=O)c3cccc(NC(=O)c4cccs4)c3)nc2s1` as the compound, how does the IkBa stabilization activation read?
A: inconclusive: 5.99% [signal inhibitor]

Q: Which IkBa stabilization activation does the source give for `COc1ccc(S(=O)Cc2ccc(C(=O)N3CCN(c4cccc(C)c4C)CC3)o2)cc1` (configuration not stated) here?
A: inconclusive: -1.42% [signal inhibitor]

Q: Which IkBa stabilization activation does the source give for `O=C(Nc1ccc(C(=O)OCc2cc(=O)n3c4c(sc3n2)CCCC4)cc1)c1ccc(F)cc1` here?
A: inconclusive: 1.2% [signal inhibitor]

Q: For `O=C(CCCCn1c(=O)c2ccccc2n(CC(=O)Nc2cccc(C(F)(F)F)c2)c1=O)NCc1ccc2c(c1)OCO2`, which IkBa stabilization activation is on record?
A: inconclusive: 5.93% [signal inhibitor]

Q: With `CCOC(=O)c1ccc(Nc2nn3c(=O)c4ccccc4nc3s2)cc1` as the compound, how does the IkBa stabilization activation read?
A: inconclusive: 1.7% [signal inhibitor]

Q: For `COc1ccc(OC)c(NC(=O)c2ccc3c(Cl)c4c(nc3c2)CCCC4)c1`, which Potency is on record?
A: inconclusive: 15.8 µM [signal inhibitor, partial curve]

Q: For `O=C(COC(=O)c1ccco1)Nc1ccc2c(c1)OCCO2`, which IkBa stabilization activation is on record?
A: inactive

Q: For `CCCCN(C)C(=O)Cn1cnc2sc(C)c(S(=O)(=O)N3CCC(C)CC3)c2c1=O`, which IkBa stabilization activation is on record?
A: inconclusive: 0.347% [signal inhibitor]

Q: For `COc1ccccc1-c1nc2s/c(=C\c3cccs3)c(=O)n2n1`, which Potency is on record?
A: inconclusive: 6.31 µM [signal inhibitor, partial curve]

Q: With `Cc1ccc(S(=O)(=O)/C=C\C#N)cc1` as the compound, how does the IkBa stabilization activation read?
A: inconclusive: -0.0242% [signal inhibitor]

Q: For `Cc1ccc(S(=O)(=O)c2nc(-c3ccc(F)cc3)oc2N2CCN(c3ccccc3)CC2)cc1`, which IkBa stabilization activation is on record?
A: inactive

Q: Which IkBa stabilization activation does the source give for `CCN(CC)c1ccc(C2Nc3ccccc3-c3cc(C)nn32)cc1` (configuration not stated) here?
A: inconclusive: -8.29% [signal inhibitor]

Q: For `Cc1ccccc1OCC1CO1` (configuration not stated), which IkBa stabilization activation is on record?
A: inactive

Q: For `COc1cc2c(=O)n(Cc3ccco3)c(=O)n(CC(=O)c3cccc(Br)c3)c2cc1OC`, which IkBa stabilization activation is on record?
A: inactive

Q: Which IkBa stabilization activation does the source give for `O=c1[nH]c2cc3c(cc2cc1C(c1nnnn1C1CCCC1)N1CCSCC1)OCCO3` (configuration not stated) here?
A: inactive

Q: Which IkBa stabilization activation does the source give for `O=C(Nc1ccc2nc3n(c(=O)c2c1)CCCCC3)c1cccc(C(F)(F)F)c1` here?
A: inactive

Q: For `COc1cc(Nc2nc(SCC(=O)c3ccc(Cl)c(Cl)c3)nc3ccccc23)cc(OC)c1`, which IkBa stabilization activation is on record?
A: inconclusive: 6.28% [signal inhibitor]

Q: For `CCOc1ccc(-c2nnc(N(CC)C(=O)C3CCC3)s2)cc1`, which IkBa stabilization activation is on record?
A: inactive

Q: Which IkBa stabilization activation does the source give for `Cc1cc(C(=O)NCc2ccccc2)c2c(C)nn(-c3cccc(F)c3)c2n1` here?
A: inconclusive: -0.413% [signal inhibitor]

Q: With `O=C(Cn1c(=O)c2cccn2c2ccccc21)NCc1ccccc1F` as the compound, how does the IkBa stabilization activation read?
A: inconclusive: 0.494% [signal inhibitor]

Q: With `Cc1cccc(N(CC(=O)NCCSCc2ccccc2)S(=O)(=O)c2ccccc2)c1C` as the compound, how does the IkBa stabilization activation read?
A: inconclusive: 2.73% [signal inhibitor]

Q: Which IkBa stabilization activation does the source give for `COc1ccc(-c2cc([C@H](O)[C@@H]3CCCCN3)c3ccccc3n2)cc1` here?
A: inactive: 4.56% [at 11.4 µM, scaled: untreated 0%, proteasome inhibitor 100%]

Q: Which IkBa stabilization activation does the source give for `O=C(CN1CC(=O)Oc2ccccc21)OCC(=O)c1ccccc1` here?
A: inactive

Q: For `Cc1ccc(-c2c(C)c(-c3ccc(F)cc3)nc(N)c2C#N)o1`, which IkBa stabilization activation is on record?
A: inconclusive: 1.98% [signal inhibitor]

Q: Which IkBa stabilization activation does the source give for `COc1ccc(N2C(=O)C(Cl)=C(N(CCO)Cc3ccccc3)C2=O)cc1` here?
A: inactive

Q: Which IkBa stabilization activation does the source give for `Cc1ccc(C(=O)c2cn(Cc3ccccc3)c3nc(C)ccc3c2=O)cc1` here?
A: inconclusive: -1.15% [signal inhibitor]

Q: With `Cc1nc(N2CCCC2)c2c(C(=O)N3CCN(c4cc(Cl)ccc4C)CC3)c(C)oc2n1` as the compound, how does the IkBa stabilization activation read?
A: inconclusive: 1.52% [signal inhibitor]

Q: Which IkBa stabilization activation does the source give for `CC(C)NC(=O)N1CCC2(CC1)CCN(S(C)(=O)=O)CC2` here?
A: inactive: 3.52% [at 11.4 µM, scaled: untreated 0%, proteasome inhibitor 100%]

Q: Which IkBa stabilization activation does the source give for `CCn1c(=O)c(=O)n(CC)c2cc(S(=O)(=O)Nc3ccc(C)cc3)ccc21` here?
A: inconclusive: -0.936% [signal inhibitor]

Q: With `COc1ccc(NC(=O)c2oc3ccccc3c2NC(=O)C2CCCCC2)c(OC)c1` as the compound, how does the IkBa stabilization activation read?
A: inconclusive: -0.0552% [signal inhibitor]

Q: Which IkBa stabilization activation does the source give for `Clc1ccc(-n2c(Cc3ccccc3)nnc2SCc2nc(-c3cccs3)no2)cc1` here?
A: inconclusive: 3.89% [signal inhibitor]

Q: For `CCCn1c(=O)c2ccccc2n2c(SCc3c(C(=O)OCC)oc4ccccc34)nnc12`, which IkBa stabilization activation is on record?
A: inconclusive: -0.119% [signal inhibitor]

Q: For `CCCCN(C)C(=O)c1ccc2c(c1)N(Cc1cccc(F)c1)C(=O)c1ccccc1S2`, which IkBa stabilization activation is on record?
A: inconclusive: 5.03% [signal inhibitor]

Q: For `Oc1cccc(Nc2nc(NCC3CCCO3)c3ccccc3n2)c1` (configuration not stated), which IkBa stabilization activation is on record?
A: inconclusive: 4.34% [signal inhibitor]

Q: Which IkBa stabilization activation does the source give for `Cc1cc(=O)n2[nH]c(-c3ccc(Cl)cc3)cc2n1` here?
A: inconclusive: 11.9% [signal inhibitor]

Q: Which IkBa stabilization activation does the source give for `Cc1cc(C)c(/C=C/c2onc(C)c2S(=O)(=O)N2CCC(C(=O)NCCc3ccccc3)CC2)c(C)c1` here?
A: inconclusive: 1.1% [signal inhibitor]

Q: For `Cc1c(CCC(=O)NCc2ccc(F)cc2)c(=O)oc2cc(O)ccc12`, which IkBa stabilization activation is on record?
A: inconclusive: 1.62% [signal inhibitor]

Q: With `CCCN(CCC)C(=O)c1c[nH]c2ccc(S(=O)(=O)N(C)c3ccc(OCC)cc3)cc2c1=O` as the compound, how does the IkBa stabilization activation read?
A: inconclusive: -0.0523% [signal inhibitor]

Q: For `COc1ccc(Nc2cc(C(=O)NCCCN3CCN(C)CC3)c3ccccc3n2)cc1OC`, which IkBa stabilization activation is on record?
A: inactive

Q: With `CCC(=O)Nc1ccc(-c2nnc(SCC(=O)Nc3nccs3)n2C)cc1` as the compound, how does the IkBa stabilization activation read?
A: inactive

Q: With `O=C1C(=O)c2ccccc2C(O)=C1C(CCc1ccccc1)C1=C(O)c2ccccc2C(=O)C1=O` as the compound, how does the IkBa stabilization activation read?
A: inactive: 10.9% [at 11.4 µM, scaled: untreated 0%, proteasome inhibitor 100%]

Q: For `O=C(CN1CCN(c2ccccn2)CC1)Nc1ccc(Oc2ccccc2)cc1`, which IkBa stabilization activation is on record?
A: inconclusive: -0.194% [signal inhibitor]
